Assay results as given in PubChem BioAssay AID1631 (National Center for Advancing Translational Sciences (NCATS), 2009).
The campaign covered roughly 260,000 compounds. About 890 (0.34%) were called active. This list was built around the results that the source calls inconclusive (neither active nor inactive); the mix of calls is not that of the screen. Calls follow the shape of the dose curve; as a rule, active = well fitted activation curve with a large enough effect; inconclusive = small, poorly fitted or top-dose-only effect; inactive = no such curve, though single readings can be large or run the other way. A potency beside an inconclusive call is a rough fit, not a confirmed value.

Target: Pyruvate kinase PKM (Homo sapiens) (UniProt P14618)
UniProt P14618, sequence (P14618 whole entry, looked up, canonical isoform): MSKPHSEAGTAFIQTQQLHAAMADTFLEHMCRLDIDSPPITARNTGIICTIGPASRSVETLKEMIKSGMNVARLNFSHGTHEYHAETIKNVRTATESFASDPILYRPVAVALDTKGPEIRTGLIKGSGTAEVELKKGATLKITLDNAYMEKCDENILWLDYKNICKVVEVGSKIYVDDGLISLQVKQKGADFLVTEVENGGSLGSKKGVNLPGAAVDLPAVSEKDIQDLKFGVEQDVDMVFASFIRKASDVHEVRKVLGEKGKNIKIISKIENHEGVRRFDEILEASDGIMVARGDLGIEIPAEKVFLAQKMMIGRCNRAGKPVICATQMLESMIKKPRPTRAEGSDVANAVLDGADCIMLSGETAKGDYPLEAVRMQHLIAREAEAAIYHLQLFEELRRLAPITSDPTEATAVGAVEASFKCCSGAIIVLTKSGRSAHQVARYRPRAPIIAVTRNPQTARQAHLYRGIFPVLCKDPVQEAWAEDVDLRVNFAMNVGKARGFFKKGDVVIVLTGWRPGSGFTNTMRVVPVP
Test: qHTS Assay for Activators of Human Muscle isoform 2 Pyruvate Kinase; also: nearly all actives have a fitted effect of over 55% in size
Conditions: purified PKM2, Kinase-Glo ATP luminescence; Potency: activation; activation: at 57.5 µM (top of the series), 0% is enzyme alone, no compound
Summary of the method: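 ATP formation by purified human PK-M2, quantified via coupled luciferase luminescence after 1 h at room temperature with 0.1 mM ADP and 0.5 mM PEP final.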
Potency is read from the fitted curve at half-maximal effect; tags tell the direction and shape of the fitted curve.

Potency, inactive:
O=C(CC1C(=O)N(c2ccccc2)C(=S)N1c1ccccc1)c1ccccc1 (stereo not drawn)
CSc1ccccc1OCc1cc(C(=O)N(C)Cc2nonc2C)no1
O=C1c2ccccc2C(=O)N1CCSC(=S)N1CCOCC1
S=C(Nc1ccc2cn[nH]c2c1)Nc1ccc(Cl)cc1Cl
COc1ccccc1CC(=O)N1CCCC1
O=[N+]([O-])c1ccc(-c2ccc(/C=N/Nc3nc(NCc4ccccc4)nc(N4CCOCC4)n3)o2)cc1
NS(=O)(=O)c1ccc(Nc2nc(-c3ccc(O)cc3O)cs2)cc1
O=C(CCC(=O)N1CCc2ccccc2C1)N1CCN(S(=O)(=O)c2ccccc2)CC1
CC(C)(C)c1csc(NC(=O)c2ccccc2O)n1
Cc1cccc(-c2ncc(CN3CCCC(CO)(Cc4ccccc4C)C3)cn2)c1 (stereo not drawn)
COc1ccc(NC(=O)/C=C/c2ccc(F)cc2)cn1
Cc1cc(Cl)ccc1NC(=O)CCC(=O)O
COc1ccccc1CNC(=O)c1ccc(NS(=O)(=O)c2c(C)noc2C)cc1
Cc1ccc(S(=O)(=O)Oc2ccc(C)cc2/C=N/N=C2\NC(=O)C(C)S2)cc1 (stereo not drawn)
COc1ccc(NC(=O)/C(Cl)=C(/Cl)S(=O)(=O)Cc2ccc(C)cc2)cn1
O=C(C1=C(O)C(=O)N(CC2CCCO2)C1c1ccc(Cl)cc1Cl)c1ccco1 (stereo not drawn)
COc1cccc(-c2c(C(=O)N/N=C(\C)c3cccs3)nnn2-c2nonc2N)c1
COc1ccc(-c2cc(-c3cc(C)ccc3O)[nH]n2)cc1
O=C(/C=C/c1ccccc1Cl)Nc1ccc2c(c1)C(=O)NC2=O
CC(C)(Oc1ccc(Cl)cc1)C(=O)NC1=NN(c2ccccc2)C(=O)C1

Potency, inconclusive:
CNc1ccccc1-c1nc2ccccc2n(C)c1=O 3.55 µM [rising, single point]
Brc1cccc(C2CC(c3ccccc3)n3nnnc3N2)c1 (stereo not drawn) 39.8 µM [rising, single point]
CCS(=O)(=O)N1Cc2ccccc2CC1C(=O)Nc1nc2ccccc2[nH]1 (stereo not drawn) 22.4 µM [rising, partial curve]
Cn1c(CCNC(=O)C2CCCCC2)nc2cc([N+](=O)[O-])ccc21 28.2 µM [rising, single point]
O=C(CNC(=O)c1ccc2ccccc2c1)OCC(=O)N1CCN(S(=O)(=O)c2ccc3ccccc3c2)CC1 10 µM [rising, partial curve]
C=CCn1c(-c2ccc(OC)c(OC)c2)cs/c1=N\c1ccccn1 15.8 µM [rising, partial curve]
COc1cccc(C(c2nnnn2Cc2ccc(F)cc2)N2CCC(C(N)=O)CC2)c1OC (stereo not drawn) 3.55 µM [rising, single point]
Cn1c(SCc2ccccc2F)nnc1-c1cnccn1 35.5 µM [rising, single point]
Cc1ccc(O)c(CNc2nc3ccccc3[nH]2)c1 1.26 µM [rising, full curve]
Cc1cc(C)cc(NC(=O)CSc2nncn2-c2ccccn2)c1 39.8 µM [rising, single point]
Cc1ccc(C(CCN(Cc2ccccc2)C(=O)c2ccco2)c2ccco2)cc1 (stereo not drawn) 22.4 µM [rising, partial curve]
CCCC(=O)N(C1CC(C)C(C#N)(C#N)C1(C#N)C#N)N(C)C (stereo not drawn) 3.55 µM [rising, full curve]
N=c1sccn1CC(=O)Nc1cccc(Oc2ccccc2)c1 8.91 µM [rising, single point]
Cc1cccc(C)c1NC(=O)C1CCCN1S(=O)(=O)c1ccc2c(c1)n(C)c(=O)c(=O)n2C (stereo not drawn) 0.891 µM [rising, single point]
Cn1c(NCc2ccccc2)nc2c1c(=O)n(Cc1ccccc1)c(=O)n2C 22.4 µM [rising, partial curve]
CCOC(=O)/C=C1\SCC(=O)N1CC(=O)Nc1cccc(F)c1 25.1 µM [rising, single point]
Cc1noc(NS(=O)(=O)c2ccc(N/C=C\C(=O)c3ccc4c(c3)OCO4)cc2)c1C 3.55 µM [rising, partial curve, poor fit]
COc1ccc2c(c1)CC/C(=C\c1ccc(C)o1)C2=O 11.2 µM [rising, partial curve]
Cc1nc2ccc(C(=O)NCc3ccc4c(c3)OCO4)cc2s1 39.8 µM [rising, partial curve, poor fit]
Cc1cc(C)n2nc(SCc3nc4ccccc4[nH]3)nc2n1 20 µM [rising, single point]
COc1cc(C=C2C(=O)c3ccccc3C2=O)cc(OC)c1 31.6 µM [rising, single point]
Cc1nn2c3c(cnc2c1-c1ccccc1)C(=O)CC(c1ccco1)C3 (stereo not drawn) 28.2 µM [rising, single point]
Cc1ccc(-c2nn(-c3ccccc3)cc2CN(Cc2ccccc2)C(=O)CCC(=O)O)o1 8.91 µM [rising, full curve]
CC(=O)Oc1cc2c(C(=O)NCc3ccncc3)c(C)oc2c2ccccc12 39.8 µM [rising, single point]
COc1ccc(C(=O)NNS(=O)(=O)c2ccccc2)cc1OC 0.891 µM [rising, single point]
CCOC(=O)Cc1csc(NC(=O)CSc2nnnn2-c2ccc(C)cc2C)n1 14.1 µM [rising, partial curve]
N#Cc1nc(COc2ccc(Cl)cc2)oc1N1CCCC1 35.5 µM [rising, single point]
O=C(COc1ccc(-c2nnco2)cc1)N1CCN(S(=O)(=O)c2ccccc2)CC1 25.1 µM [rising, partial curve]
Cc1cc(C)cc(NC(=O)Nc2ccc(N3CCCCC3)cc2)c1 3.55 µM [rising, full curve]
CCNc1nc(NC(C)C)nc(OCCOC(=O)c2ccccc2)n1 15.8 µM [rising, partial curve]
O=C(OCC(=O)N1CCCc2ccccc21)C1CCN(S(=O)(=O)c2cccs2)CC1 17.8 µM [rising, single point]
O=S(=O)(c1ccc(F)cc1)N1CCN(C(=S)NC2CCCC2)CC1 20 µM [rising, partial curve]
O=C(CCC(=O)N1CCN(S(=O)(=O)c2ccccc2)CC1)NC1CCCc2ccccc21 (stereo not drawn) 39.8 µM [rising, single point]
Cc1noc(C)c1C(=O)OCC(=O)N1CCN(S(=O)(=O)c2ccc3ccccc3c2)CC1 28.2 µM [rising, single point]
c1ccc(-c2cc3n(c2)CCc2ccccc2-3)cc1 20 µM [rising, partial curve]
CCOc1ccc(N2C(=O)/C(=C/c3ccco3)N(C)C2=S)cc1 3.55 µM [rising, full curve]
COc1ccc(-n2c(=O)c3c4c(sc3n(CC(N)=O)c2=O)CCCCC4)cc1 5.01 µM [rising, single point]
Cc1noc(/C=C/c2ccco2)c1S(=O)(=O)N1CCC(C(=O)N(C)Cc2ccccc2)CC1 28.2 µM [rising, single point]
CCC1=C/C(=C/c2sc3ccccc3[n+]2CC)CC(C)(C)C1 22.4 µM [rising, single point]
COc1ccc2c(=O)c3c(=O)n(Cc4ccco4)c(-c4ccco4)nc3oc2c1 17.8 µM [rising, partial curve]
CC(C)(C)CC(=O)Nc1nnc(-c2cccs2)s1 3.55 µM [rising, single point]
Cc1cccc(CSc2ncnc3c2cnn3Cc2ccccc2)c1 15.8 µM [rising, partial curve]
Cn1c(C(=O)NCc2cccnc2)cc2sc(Cl)cc21 35.5 µM [rising, single point]
CCOC(=O)C1=NN(C(=O)Nc2ccc(OC)cc2)C2C(=O)N(c3cccc(C(F)(F)F)c3)C(=O)C12 (stereo not drawn) 0.891 µM [rising, single point]
CCCCOP(=O)(c1ccc(N(C)C)cc1)C(O)c1ccncc1 (stereo not drawn) 39.8 µM [rising, single point]
COc1ccc(S(=O)(=O)N2CCC(C(=O)NCC(c3cccs3)N(C)C)CC2)cc1 (stereo not drawn) 15.8 µM [rising, partial curve, poor fit]

Potency, active:
CN1C(=O)Cc2cc(S(=O)(=O)NCc3c(F)cccc3Cl)ccc21 14.1 µM
Cn1cnnc1Sc1cc(N2CCN(S(=O)(=O)c3ccc4ccccc4c3)CC2)ccc1[N+](=O)[O-] 0.355 µM
CSc1ccc(S(=O)(=O)N2CCC(C(=O)NCc3ccco3)CC2)cc1 10 µM
Cn1ncc(SCc2ccccc2)c(Cl)c1=O 17.8 µM
O=S(=O)(c1ccc2ccccc2c1)N1CCN=C1SCc1cccnc1 17.8 µM
CCN1C(=O)c2cccc3c(S(=O)(=O)Nc4ncccc4C)ccc1c23 11.2 µM
CC(=O)Nc1ccc(S(=O)(=O)c2ccc(C)cc2)cc1 14.1 µM
